About 550 (1.1%) of roughly 48,000 compounds were called active. Inconclusive results (about 4%) are left out. Rule as the data show it: active = potency below about 15 µM; inconclusive = mostly about 16 µM to 33 µM; inactive = weaker than that. This is one part of the list.
target: Lysosomal acid glucosylceramidase (Homo sapiens) (UniProt P04062); experiment: Glucocerebrosidase; conditions: purified enzyme, resorufin glucoside fluorescence (screen aimed at inhibitors), 20 min;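 also: the screen sought inhibitors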
How it was run: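 Compounds titrated against 0.2 nM normal enzyme, 30 uM resorufin beta-D-glucopyranoside substrate, citrate/phosphate buffer with taurocholate and tween-20, pH 5.9. Reaction ran 20 min at room temperature; fluorescence (Ex 548/Em 600) gave AC50.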
Potency is read from the fitted curve at half-maximal effect.

UniProt P04062, sequence (P04062 whole entry, looked up): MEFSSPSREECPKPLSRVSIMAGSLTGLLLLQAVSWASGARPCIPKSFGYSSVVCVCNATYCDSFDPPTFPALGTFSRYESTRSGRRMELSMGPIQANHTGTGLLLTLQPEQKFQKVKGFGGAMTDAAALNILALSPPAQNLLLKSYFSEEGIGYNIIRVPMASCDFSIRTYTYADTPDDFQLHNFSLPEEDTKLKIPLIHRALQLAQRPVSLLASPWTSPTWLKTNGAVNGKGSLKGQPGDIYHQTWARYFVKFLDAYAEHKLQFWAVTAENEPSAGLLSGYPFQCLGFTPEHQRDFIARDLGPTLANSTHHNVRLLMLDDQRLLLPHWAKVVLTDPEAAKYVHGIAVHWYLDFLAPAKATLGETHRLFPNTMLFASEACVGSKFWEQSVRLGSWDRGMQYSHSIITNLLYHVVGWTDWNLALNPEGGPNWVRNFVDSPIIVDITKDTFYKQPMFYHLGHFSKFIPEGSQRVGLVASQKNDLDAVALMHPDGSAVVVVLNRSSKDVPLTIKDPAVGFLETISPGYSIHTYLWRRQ

Potency, inactive:
COC(=O)Nc1nn(Cc2ccccc2F)cc1Br > 76.9 µM
COc1ccc(CN2CCN(c3cc(C)nc4c5c(C)cc(C)nc5nn34)CC2)cc1F > 76.9 µM
O=C(NCCOC(=O)c1cccs1)c1cccnc1 > 76.9 µM
CCc1nnc(NC(=O)CSc2nnc3ncccn23)s1 > 76.9 µM
COCCNC(=O)c1cc(-c2ccc(OC)c(OC)c2)on1 > 76.9 µM
COc1ccc(C2CC(C(F)(F)F)n3nc(C(=O)N(C)Cc4cn(C)nc4C)c(Cl)c3N2)cc1 (centres undefined) > 76.9 µM
O=C(Nc1ccc(O)c(C(=O)O)c1)c1ccc2c(c1)C(=O)N(CC1CCCO1)C2=O (centres undefined) > 76.9 µM
O=C(CSc1nnc(-c2ccncc2)n1C1CCCCC1)Nc1cccc(O)c1 > 76.9 µM
Cc1ccc(Nc2nc(N)nc(CSc3nccn3C)n2)c(C)c1 > 76.9 µM
CCn1cc2c(c1-c1cccc(C)c1)c(=O)n(C)c(=O)n2C > 76.9 µM
Cc1ccc(S(=O)(=O)Nc2ccc3nc(-c4cccn4C)[nH]c3c2)cc1 > 76.9 µM
COc1ccc2c(c1)C1(Nc3ccccc3-c3nc4ccccc4n31)C(=O)N2 (centres undefined) > 76.9 µM
CCc1nnc(NC(=O)C2CC(=O)N(c3ccc(C)cc3)C2)s1 (centres undefined) > 76.9 µM
CCOC(=O)C(C)n1cnc2c(oc3ccccc32)c1=O (centres undefined) > 76.9 µM
CCOC(=O)C(CC)Sc1nnc2n1C(C)(C)Cc1ccccc1-2 (centres undefined) > 76.9 µM
Cc1cc(C)c2c(n1)nn1c(-n3ccnc3)cc(C)nc21 > 76.9 µM
COc1ccc(C(=O)Nc2cc(Cl)cc(Cl)c2)c(OC)n1 > 76.9 µM
CCCC1CCC(C(=O)Nn2cnc3ccccc3c2=O)CC1 (centres undefined) > 76.9 µM
COc1ccc(C(=O)OCC(=O)NCc2ccco2)cc1OC > 76.9 µM
Cc1ccc(-c2nc(C3CCN(S(C)(=O)=O)CC3)no2)cc1 > 76.9 µM
COc1ccc(-c2c3c(=O)n(C)c(=O)n(C)c3cn2-c2ccccc2)cc1 > 76.9 µM
CCN(CCCNC(=O)c1cn(CC)c2ccc(S(=O)(=O)N(C)C)cc2c1=O)c1cccc(C)c1 > 76.9 µM
Cc1cc(C)c(-c2cc(NC(=O)CSc3nncn3C)n(-c3ccccc3)n2)cc1C > 76.9 µM
Cc1ccc(-c2nc(C)sc2CC(=O)NCc2ccco2)cc1 > 76.9 µM
Cc1ccc(C(=O)COC(=O)CNC(=O)c2ccco2)cc1 > 76.9 µM
Cc1ccc(S(=O)(=O)N2CCCC2C(=O)NCCc2nc3ccccc3[nH]2)cc1 (centres undefined) > 76.9 µM
C/C(Cl)=C/Cn1c(NCCCn2ccnc2)nc2c1c(=O)[nH]c(=O)n2C > 76.9 µM
COc1ccc(S(=O)(=O)Nc2ccc3c(c2)OCO3)cc1Cl
COC(=O)c1cccc(CSc2nnc(-c3ccco3)n2-c2ccccc2)c1 > 76.9 µM
O=C(Nc1ccccc1)Nc1cccc2cccnc12 > 76.9 µM
COc1ccccc1CC(=O)NC1CC(C)(C)NC(C)(C)C1 > 76.9 µM
O=C(O)c1cc2c([nH]c1=O)CCCC2 > 76.9 µM
c1ccc(OCc2nc(-c3ccccc3)no2)cc1 > 76.9 µM
CC1Cc2ccccc2N1C(=O)CSc1nc(-c2ccco2)cc(C(F)(F)F)n1 (centres undefined) > 76.9 µM
COc1ccc(OC)c(C(=O)CSc2nnc(-c3ccc(OC)c(OC)c3)o2)c1 > 76.9 µM
O=C(CSc1n[nH]c(C2CCCC2)n1)NC1CCCC1 > 76.9 µM
CCn1c(=O)cc(OCC(=O)Nc2ccc(C)cn2)c2ccccc21 > 76.9 µM
CSc1ccccc1NC(=O)c1cccnc1 > 76.9 µM
COc1ccc(CN2C(=O)c3ccccc3C2C(=O)NCc2cccnc2)c(OC)c1 (centres undefined) > 76.9 µM
CCOC(=O)c1cnc(-c2ccccc2)nc1N > 76.9 µM
O=C(NCCN1CCOCC1)C1CCC(=O)N1C1CCCCC1 (centres undefined) > 76.9 µM
CC(=O)NC1C2CN3CCN(C2)CC1(Cc1ccccc1)C3 (centres undefined) > 76.9 µM
Cc1cc(C)n(-c2ncnc3c2oc2ccccc23)n1 > 76.9 µM
O=C(CC1CCCCC1)c1c(O)c2ccccc2oc1=O > 76.9 µM
c1ccc2c(c1)CNc1ccccc1C2 > 76.9 µM
Cc1cc(Nc2cccc(F)c2)nc(-c2ccccc2O)n1
Cc1ccc(C)c(OCC(=O)Nc2nonc2NC(=O)COc2cc(C)ccc2C)c1 > 76.9 µM
COC(=O)c1ccc(OC)c(CSc2nnc(COc3cccc(C)c3)o2)c1 > 76.9 µM
Cc1ccc2[nH]c(=O)c(CN(Cc3ccco3)C(=O)c3cccs3)cc2c1 > 76.9 µM
Cc1cc(NC(=O)c2cccc(F)c2)ncc1NC(=O)c1ccco1 > 76.9 µM
C/C(O)=C(/N=O)C(=O)Nc1ccccc1 > 76.9 µM
CCOc1ccc(-c2nc(-c3ccc(OC)c(OC)c3)no2)cc1OCC > 76.9 µM
O=C(CSc1nnc(C2CC2)n1Cc1ccccc1)c1cc2ccccc2o1 > 76.9 µM
CSc1nc(-c2ccccc2)ccc1C(N)=O > 76.9 µM
CCCCNc1c(C(=O)OCC)c(=O)[nH]c2ccccc12 > 76.9 µM
O=c1cc(CN2CCN(C/C=C/c3ccccc3)CC2)c2cc(O)ccc2o1 > 76.9 µM
COc1cccc(NC(=O)c2cn(C)c(=O)c3cc(OC)c(OC)cc23)c1 > 76.9 µM
O=C1OCc2cccc3cccc1c23 > 76.9 µM
CC(C)n1c(N2CCN(C(=O)N3CCCCC3)CC2)nc2ccccc21 > 76.9 µM

Source: PubChem BioAssay AID360 (National Center for Advancing Translational Sciences (NCATS), 2006)
